Test results reported in PubChem BioAssay AID1159614 (National Center for Advancing Translational Sciences (NCATS), 2016).
Screen size: about 45,000 compounds; about 65 (0.1%) were called active. Calls follow the shape of the dose curve; as a rule, active = well fitted activation curve with a large enough effect; inconclusive = small, poorly fitted or top-dose-only effect; inactive = no such curve, though single readings can be large or run the other way. This is one part of the list.

molecular target: Galactocerebrosidase (Homo sapiens) (UniProt P54803); experiment: A Novel Cell-Based Assay to Identify Small Molecules for B -Galactocerebrosidase; conditions: 145M-Twi-hGALC-G270D cells (Twitcher mouse brain line with human GALC G270D), HMU-beta-Gal fluorescence, 48 h; series mostly up to 57.5 µM; activation: at the top concentration; also: 0% is about no effect; nearly all actives have a fitted effect of over 65% in size
UniProt P54803, sequence (P54803 whole entry, looked up): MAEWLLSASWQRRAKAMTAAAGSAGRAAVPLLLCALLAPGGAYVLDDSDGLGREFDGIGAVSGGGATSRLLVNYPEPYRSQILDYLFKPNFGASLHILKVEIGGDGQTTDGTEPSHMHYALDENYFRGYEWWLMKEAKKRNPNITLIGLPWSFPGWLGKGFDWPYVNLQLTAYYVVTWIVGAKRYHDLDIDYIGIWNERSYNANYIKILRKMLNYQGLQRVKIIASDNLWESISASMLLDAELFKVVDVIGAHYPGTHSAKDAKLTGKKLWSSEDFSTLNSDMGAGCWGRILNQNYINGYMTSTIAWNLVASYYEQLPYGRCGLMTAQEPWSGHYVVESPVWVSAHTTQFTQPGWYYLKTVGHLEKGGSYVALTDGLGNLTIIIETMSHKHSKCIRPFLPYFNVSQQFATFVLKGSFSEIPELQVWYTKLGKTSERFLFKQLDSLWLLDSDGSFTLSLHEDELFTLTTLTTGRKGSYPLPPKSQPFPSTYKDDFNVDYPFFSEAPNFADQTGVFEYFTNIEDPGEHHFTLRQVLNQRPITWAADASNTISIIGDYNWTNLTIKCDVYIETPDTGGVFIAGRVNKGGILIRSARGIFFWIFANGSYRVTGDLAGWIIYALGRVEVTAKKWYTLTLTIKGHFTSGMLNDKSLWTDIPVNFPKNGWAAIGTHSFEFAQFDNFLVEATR
How it was run: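 Fluorescence readout: HMU-β-gal cleavage by mutant GALC (0.1 mM final, citrate/phosphate pH 5.2 with 1 mg/mL taurocholate), stopped with carbonate/bicarbonate plus Triton X-100. Cells: murine Twitcher 145M-Twi expressing human G270D GALC; qHTS for activators.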

activation, inactive:
O=C1c2oc3ccccc3c(=O)c2C(c2ccc(Br)cc2)N1c1ccccn1 (stereo unspecified) -6.4%
CCOc1ccc(NC(=O)CC2C(=O)N(c3ccccc3)C(=O)N2CCc2ccc(OC)cc2)cc1 (stereo unspecified) -13.7%
COC(=O)c1cnn(-c2ccc(C(=O)Nc3cccc(C(C)=O)c3)cc2)c1N -10.5%
CCOC(=O)c1[nH]c(C)c(CCC(=O)Nc2c(C)cc(C)cc2C)c1C -5.42%
CCCn1c(SCc2nc(-c3ccccc3C)no2)nnc1-c1ccc(Cl)cc1 -19.4%
Cc1cccc(OCc2cc(=O)n3c(-c4ccccc4)csc3n2)c1C -3.7%
COc1ccc(N2C(=O)CSC23C(=O)N(CC(=O)NC2CCCCC2)c2ccccc23)cc1 (stereo unspecified) -26.6%
Cc1cccc(N2CCN(C(=O)C3CCC(CNS(=O)(=O)c4ccc(Br)s4)CC3)CC2)c1C (stereo unspecified) -12.5%
CCc1nn(CC(=O)N2CCN(c3cccc(C)c3C)CC2)c(=O)c2cc3occc3n12 7.26%
CC(=O)c1ccc(N2CCN(S(=O)(=O)c3c(C)nc4sc(C)cn4c3=O)CC2)cc1 -0.349%
CCn1cc(C(=O)NCCCOC(C)C)c(=O)c2cc(S(=O)(=O)N3CCc4ccccc4C3)ccc21 -22%
O=C(CN1C(=O)CCSc2ccc(S(=O)(=O)N3CCCC3)cc21)Nc1ccccc1 -14.7%
CCC(Oc1ccccc1)C(=O)Nc1ccc(O)c(-c2nc3cc(C)ccc3o2)c1 (stereo unspecified) -14.9%
CCC(C(=O)Nc1ccccc1C(=O)OC)n1c(C)c2cnn(-c3ccccc3)c(=O)c2c1C (stereo unspecified) 4.18%
CCc1nnc(NC(=O)c2nc(S(=O)(=O)Cc3cccc(C)c3)ncc2Cl)s1 -17%
NC(=O)CSc1oc(-c2ccco2)nc1S(=O)(=O)c1ccc(Br)cc1 -24%
CCCCn1cc(S(=O)(=O)c2ccc(C)c(C)c2)c(=O)c2cc(F)c(N3CCN(C)CC3)cc21 -9.39%
Cn1c(CN2CCCCC2)nc2cc(NC(=O)c3cccc(Br)c3)ccc21 -4.75%
Cn1c(NCCCCO)nc2c1c(=O)n(Cc1ccc(Cl)cc1)c(=O)n2C -4.73%
COc1ccc(NC(=O)Cn2c(=O)n(CCCC(=O)NCc3ccccc3OC)c(=O)c3ccccc32)cc1Cl -0.602%
COc1cccc(NC(=O)CCS(=O)(=O)c2ccc3c(c2)oc(=O)n3C)c1 -4.71%
O=C(Cn1cc(S(=O)(=O)Cc2ccccc2Cl)c2ccccc21)NCc1ccccc1Cl -26.5%
O=C(Nc1cccc(C(F)(F)F)c1)c1cc(-c2ccc3c(c2)OCCO3)on1 -10.7%
CCSc1nnc(NC(=O)c2cc(=O)c3cc(C)c(C)cc3o2)s1 -15.6%
CCOC(=O)c1c(-c2ccc(OC)cc2)oc2ccc(OCc3ccc(Br)cc3)cc12 -15.2%
COc1ccc(Cn2c(=O)c3cccnc3n(CC(=O)Nc3c(C)cc(C)cc3C)c2=O)cc1 -13.7%
CCc1cnc2c(c1SCC(=O)c1ccc(Cl)cc1)c(=O)n(C)c(=O)n2C -8.25%
CC(=O)c1ccc(N2CCN(C(=O)CCCCn3c(=O)[nH]c4ccsc4c3=O)CC2)cc1 -12.9%
CCOc1ccc(CNS(=O)(=O)c2cc3c(cc2C)NC(=O)CO3)cc1 -6.59%
Cc1cccc(NC(=O)CSc2nc3ccccc3nc2N2CCOCC2)c1C -11.5%
O=C(Nc1nnc2n1CCS2)c1ccccc1C(F)(F)F -19.3%
COc1cc(OC)cc(C(=O)N2CC(=O)Nc3ccc(Cl)cc3C2c2ccccc2)c1 (stereo unspecified) -6.55%
CC(C)CCNC(=O)CCC(=O)NNc1nc2ccccc2c2nc(-c3ccccc3)nn12 -7.08%
O=C(NCCc1ccc(F)cc1)C(=O)NCC(c1ccco1)S(=O)(=O)c1cccs1 (stereo unspecified) -12.9%
COc1ccc(S(=O)(=O)n2nc(C)c(S(=O)(=O)N3CCC(C)CC3)c2C)cc1OC 1.74%
Cc1ccc(N(CC(=O)Nc2ccc(Br)cc2)S(=O)(=O)c2cccs2)cc1 -10.6%
CCc1ccccc1NC(=O)c1ccc2nc(C(C)C)oc2c1 -14.6%
CCOc1ccc(NC(=O)C(=O)NCc2ccco2)cc1 -10.1%
COc1cccc(C(=O)NCC(c2ccc3c(c2)OCO3)N2CCOCC2)c1 (stereo unspecified) 1.46%
COc1ccc(C2=C(C)C(N3CCC(C(=O)Nc4ccc(F)cc4C)CC3)=NS2(=O)=O)cc1 -12.1%
O=C(Nc1ccc(Cl)c(C(F)(F)F)c1)C(Cc1ccccc1)NS(=O)(=O)c1ccc(Br)s1 (stereo unspecified) -11.9%
CC1(C)CC(=O)c2cc(C(=O)Nc3ccccc3Cl)c(=O)n(-c3ccc(Cl)cc3)c2C1 -8.09%
COc1ccc2cc3cc(C(=O)NCc4ccccc4OC)oc3nc2c1 -26.9%
O=C(NCc1ccccc1)C(=O)NCC(c1cccs1)S(=O)(=O)c1ccccc1 (stereo unspecified) -14.7%
CCOC(=O)c1ccc(NC(=O)c2cc3sccc3n2Cc2ccc(Cl)cc2)cc1 -13.4%
Cc1cccc(N2CCN(S(=O)(=O)c3csc(C(N)=O)c3)CC2)c1C -0.762%
Cc1cccc(NC(=O)CSc2nc(-c3ccco3)cc(C(F)(F)F)n2)c1C -2.99%
Cc1ccc(N(Cc2cccs2)C(=O)c2ccccc2Cl)cc1 -6.61%
COc1ccc(NC(=O)C(C)N(c2ccccc2)S(C)(=O)=O)cc1 (stereo unspecified) -17.1%
COc1ccc(C)cc1NC(=O)Cn1c(=O)n(Cc2nc(C)no2)c(=O)c2ccccc21 10.1%
O=C(Nc1nnc2n1CCS2)c1ccc(F)cc1F -26.7%
O=C(c1ccccc1Cl)N1CCCCC1CCN1CCCCC1 (stereo unspecified) -5.9%
CC(C)c1ccc(NS(=O)(=O)c2ccc3nc(-c4ccccc4)[nH]c3c2)cc1 -10.5%
COc1ccc(NCc2cc3cc4c(cc3n(CC(=O)Nc3cc(C)ccc3C)c2=O)OCCO4)cc1 -13.2%
CCOc1ccc(CN2CCc3nc(Nc4ccc5c(c4)OCCO5)ncc3C2)cc1 -12.5%
Cc1nn2c(=O)cc(COC(=O)c3ccccc3NC(=O)C(C)Oc3ccccc3)nc2s1 (stereo unspecified) -7.16%
CCOc1ccccc1NC(=O)C(CC)Sc1nc2ccncc2[nH]1 (stereo unspecified) -10%
COc1ccc(CCNC(=O)c2ccc(Cn3c(=O)c4ccccc4n(Cc4cccc(Cl)c4)c3=O)cc2)cc1OC -12.1%
Cc1ccc(NC(=O)Cn2c(=O)n(Cc3ccco3)c(=O)c3ccccc32)c(C)c1 -0.513%
COc1ccc(NC(=O)c2ccc3c(c2)sc2nc(-c4ccc(OC)cc4)cn23)cc1 -4.63%
Cc1ccc(-n2nc3c(=O)n(CCCC(=O)NCCc4ccccc4Cl)nc(C)c3c2C)cc1 -14.3%
